Assay results reported in PubChem BioAssay AID488969 (Vanderbilt High Throughput Screening Facility, 2010).
Over roughly 110,000 compounds, “z-score” has its median near -0.1; the highest 2% begin near 2. The list shows a part of the results. Activity calls are given as the source filed them.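 How the source made its calls: active means z-score in the third read window above 3 or below -3; inactive means the rest.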

These compounds were tested against Metabotropic glutamate receptor 8 (Rattus norvegicus) (UniProt P70579) (assay: mGluR8 Gi/Go-coupled signaling modulation – cell-based, rat, thallium flux, HTS, primary screen (AID 488969)). Details: HEK293 rat mGluR8, GIRK (G protein-gated inwardly rectifying potassium channel) thallium flux, FluoZin2; at 10 µM; stronger effect = higher value; submaximal glutamate (EC20) added with thallium.
Sequence of UniProt P70579 (P70579 whole entry, looked up): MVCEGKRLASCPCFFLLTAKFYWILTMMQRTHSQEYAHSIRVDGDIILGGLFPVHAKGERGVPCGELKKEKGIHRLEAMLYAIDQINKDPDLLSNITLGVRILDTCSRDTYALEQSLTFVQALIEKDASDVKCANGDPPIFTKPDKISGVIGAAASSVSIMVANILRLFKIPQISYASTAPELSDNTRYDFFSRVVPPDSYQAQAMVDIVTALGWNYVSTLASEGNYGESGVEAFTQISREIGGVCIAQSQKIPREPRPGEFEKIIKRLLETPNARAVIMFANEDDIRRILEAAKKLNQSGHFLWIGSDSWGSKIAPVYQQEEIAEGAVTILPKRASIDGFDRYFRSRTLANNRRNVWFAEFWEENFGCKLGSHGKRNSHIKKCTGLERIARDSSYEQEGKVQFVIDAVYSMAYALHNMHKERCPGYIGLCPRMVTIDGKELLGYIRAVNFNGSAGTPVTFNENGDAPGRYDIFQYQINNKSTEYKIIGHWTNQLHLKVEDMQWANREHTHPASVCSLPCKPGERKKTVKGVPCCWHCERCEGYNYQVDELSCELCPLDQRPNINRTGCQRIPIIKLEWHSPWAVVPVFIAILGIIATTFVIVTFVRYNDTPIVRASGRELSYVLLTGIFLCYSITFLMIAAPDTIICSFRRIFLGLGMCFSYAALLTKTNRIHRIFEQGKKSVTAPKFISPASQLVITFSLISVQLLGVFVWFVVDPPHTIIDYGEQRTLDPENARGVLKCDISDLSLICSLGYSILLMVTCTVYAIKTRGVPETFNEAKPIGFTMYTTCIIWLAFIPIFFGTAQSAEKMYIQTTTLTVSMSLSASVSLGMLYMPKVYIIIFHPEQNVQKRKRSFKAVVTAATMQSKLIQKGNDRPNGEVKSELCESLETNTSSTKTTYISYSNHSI

Row | Compound | z-score
1 | Cc1ccc(C)c(S(=O)(=O)N2CCN(CC(=O)Nc3ccc([N+](=O)[O-])cc3)CC2)c1 | -0.137
2 | Cc1ccccc1NC(=O)C1c2ccccc2Oc2ccccc21 | -0.192
3 | COCCCN=CC1=C(O)CC(C)(C)CC1=O | -0.139
4 | Cc1cc2n(n1)C(c1ccccc1Cl)Nc1ccccc1-2 (stereo not given) | -2.39
5 | COc1cc(/C=C(\C#N)c2ccccn2)ccc1OCc1ccc(Cl)cc1 | -0.0975
6 | Cc1ccc(Cc2cnc(NC(=O)/C(C#N)=C/c3ccc(-c4cccc([N+](=O)[O-])c4)o3)s2)cc1 | -0.137
7 | CCN1CC(O)=C(c2nc3ccccc3s2)C1=N | -0.416
8 | COc1ccc(/C=N/NC(=O)c2ccc(-c3ccccc3)cc2)cc1O | -0.232
9 | CCOc1ccc2oc(=O)cc(C)c2c1 | -0.0487
10 | CCOC(=O)N1CCC(=NNS(=O)(=O)c2cccc([N+](=O)[O-])c2)CC1 | 0.226
11 | COc1ccc(OC)c(-c2csc(NC(=O)C3c4ccccc4Oc4ccccc43)n2)c1 | 0.65
12 | O=c1oc2cc(Br)ccc2n1CSC1=NCCS1 | -0.0696
13 | COc1ccc(/C(C)=N/N=C2/NC(=O)CC(C(=O)O)S2)cc1 (stereo not given) | -0.203
14 | CCOC(=O)c1ccc(CNC(=O)c2n[nH]c(=O)c3ccccc23)o1 | 0.405
15 | COc1ccc(S(=O)(=O)N2N=C(C)Oc3ccccc3C2=O)cc1 | 0.107
16 | COc1ccc(N(CC(=O)Nc2cccc(N(C)S(C)(=O)=O)c2)S(C)(=O)=O)cc1OC | 0.78
17 | COc1cc(/C=N/NC(=O)c2c(-c3ccccc3)noc2C)ccc1O | -0.215
18 | C=CCSc1nccc(-c2cc(Cl)sc2Cl)n1 | -0.089
19 | Nc1cc(=O)[nH]c(SCC(=O)Nc2cc(Cl)cc(Cl)c2)n1 | 0.266
20 | C(=C\c1nnc(-c2cccs2)o1)/c1ccccc1 | -0.163
21 | CCOc1ccc(N2C(=O)Nc3ccccc3C2(O)C(=O)NCc2ccc3c(c2)OCO3)cc1 (stereo not given) | -0.0965
22 | COc1ccc(NC(=O)Nc2ccc(Br)cn2)cc1OC | -0.221

Row | Compound | z-score
23 | CC(C)(O)c1nnn(-c2ccccc2)c1C(F)(F)F | -0.0245
24 | O=C(COc1cccc(-n2cnnn2)c1)N1CCOCC1 | 0.595
25 | S=C(NCCc1ccccn1)Nc1ccc(Cl)c(Cl)c1 | 0.684
26 | O=C(c1ccccc1)c1c[nH]cc1-c1ccccc1 | -0.371
27 | Brc1ccc(-c2nnc(-c3cccnc3)c3conc23)cc1 | 0.196
28 | C=CCNC(=S)N/N=C/c1ccc(-c2ccc(Br)cc2)o1 | 0.139
29 | O=C(C1CC1)N1CCC(c2nc(-c3ccc(S(=O)(=O)N4CCCC4)cc3)no2)CC1 | 0.261
30 | CCS(=O)(=O)N1CCC(C(=O)NCCc2ccc(OC)c(OC)c2)CC1 | -0.284
31 | CCOC(=O)c1c(NC(=O)CN2CCCc3ccccc32)sc(C(C)=O)c1C | 0.00934
32 | Cc1cc2ncn(-c3ncnc4sc5c(c34)CCC(C)C5)c2cc1C (stereo not given) | -0.222
33 | COc1ccc(/C=N/NC(=O)C2CCN(c3ncc(C(F)(F)F)cc3Cl)CC2)cc1 | 0.0833
34 | Cc1ccc(NCc2nnc(SCC(=O)N3c4ccccc4Sc4ccccc43)o2)c(C)c1 | 0.287
35 | CCN(CC)C(=O)c1cnn(-c2ccccc2)c1NC(=O)c1ccco1 | 0.336
36 | COc1ccccc1Nc1nnc(SCC(=O)c2cc(C)n(CC3CCCO3)c2C)s1 (stereo not given) | -0.629
37 | CCOc1ccccc1NC1c2ccccc2C(=O)N1Cc1ccco1 (stereo not given) | 0.15
38 | CC(=O)c1ccc(NC(=S)NCCc2ccccn2)cc1 | 0.00537
39 | Cc1ccccc1CNCc1cccnc1 | -0.689
40 | CCCn1nnnc1NC(=O)c1cc(Cl)ccc1Cl | 0.462
41 | CCC(C)c1c(O)nc(SCC(=O)N2CCOCC2)[nH]c1=O (stereo not given) | 2.93
42 | Fc1ccc(N/N=C2/CC(c3ccccc3)Oc3ccccc32)c(F)c1 (stereo not given) | 0.298
43 | Cc1cc(N2C(=O)CC(N3CCN(c4ccc(C(=O)c5cccs5)cc4)CC3)C2=O)no1 (stereo not given) | -2.15
44 | c1ccc2oc(-c3ccc(Nc4nc(N5CCCCC5)nc(N5CCOCC5)n4)cc3)nc2c1 | -0.359

Row | Compound | z-score
45 | COC(=O)C1CCN(S(=O)(=O)c2ccc(NC(C)=O)cc2)CC1 | -0.481
46 | Cc1cc(=O)oc(C)c1C(=O)Nc1cccc2ccccc12 | 0.0875
47 | COc1ccc(-c2cnc3nc[nH]c(=O)c3n2)cc1 | -0.0157
48 | CC1CCCC(C)N1C(=O)CSc1nnnn1-c1cccc2c1CCCC2 (stereo not given) | -0.621
49 | O=C(CSc1ncccc1-c1nc2ccccc2[nH]1)N1CCN(c2ccccc2F)CC1 | -0.631
50 | CCOC(=O)CN1NC2(CCCC(C)C2)NC1=S (stereo not given) | -0.128
51 | COc1ccc(C2C(C#N)=C(N)OC(C(C)(C)C)=C2C#N)cc1OC (stereo not given) | -0.133
52 | COc1ccc(-c2nnc(N(C)C(=O)c3ccno3)s2)cc1 | -0.105
53 | CCN(CC)C(=O)CCSc1nnc(-c2ccncc2)o1 | 0.522
54 | Cc1nnc(N/N=C/c2ccc(O)c([N+](=O)[O-])c2)[nH]c1=O | 0.0995
55 | Cc1cccc(CCNC(=O)c2cc(=O)[nH]c3ccc(Br)cc23)c1 | -0.576
56 | Cc1cc(C)cc(Nc2nc(-c3ccc(S(=O)(=O)N4CCCC4)cc3)cs2)c1 | -0.0957
57 | Cc1cccc(N(CC(=O)Nc2c(C)n(C)n(-c3ccccc3)c2=O)S(C)(=O)=O)c1C | -0.222
58 | O=C(N/N=C/c1ccc([N+](=O)[O-])o1)c1cn(-c2ccccc2)nc1-c1ccccc1 | -0.0113
59 | Cc1sc2nc(SCC(=O)N(C)C)[nH]c(=O)c2c1C | 1.08
60 | CCOC(=O)c1cc(NC(=O)Nc2ccccc2OC)c(C)nc1C | -0.0922
61 | Cc1ccc(C2CN(C)C3(C(=O)Nc4ccccc43)C23COc2ccccc2C3=O)cc1 (stereo not given) | -0.0418
62 | CN(C(=O)COc1nnc(-c2cccs2)c(-c2cccs2)n1)c1ccccc1 | -0.423
63 | O=C1CCC([N+](=O)[O-])C(c2ccc(Cl)cc2Cl)N1 (stereo not given) | -0.219
64 | COc1ccc(-n2c(=O)c3ccccc3n(Cc3ccc(F)cc3)c2=O)cc1OC | -0.315
65 | COc1cccc(-n2c(SCC(=O)N3CCOCC3)nnc2-c2c[nH]c3ccccc23)c1 | -0.89
66 | O=C(O)c1ccc(Cl)c(S(=O)(=O)NCC2CCCO2)c1 (stereo not given) | -0.0841

Row | Compound | z-score
67 | CC(=O)c1cccc(NC(=O)c2ccc(N(C)S(C)(=O)=O)cc2)c1 | 0.255
68 | O=C(Nc1ccc(N2CCOCC2)cc1N1CCOCC1)c1cccs1 | -0.508
69 | CC(=O)C1C(c2ccco2)c2c(noc2C)CC1(C)O (stereo not given) | 0.397
70 | Cc1cc(/C=C2/SC(=S)N(c3cccc(Cl)c3)C2=O)c(C)n1-c1cccnc1 | -0.217
71 | CCCC(C)NC(=O)c1nc(-c2ccccc2)n(-c2ccccc2)n1 (stereo not given) | -2.97
72 | CN1C(=O)C2(C(C#N)=C(N)N(c3cc(Cl)cc(Cl)c3)C3=C2C(=O)CCC3)c2ccccc21 (stereo not given) | active: -4.03
73 | COc1cccc(C2CC(=O)NC3=C2C(=O)CCC3)c1 (stereo not given) | -0.128
74 | COc1cc(NC(=O)NC(C)(C(F)(F)F)C(F)(F)F)cc(OC)c1OC | 0.919
75 | CC(=O)N/C(=C\c1ccc(F)cc1)C(=O)NC(Cc1c[nH]c2ccccc12)C(=O)O (stereo not given) | 0.0629
76 | CSc1nc(-c2ccco2)cc(C(F)(F)F)c1C#N | 0.173
77 | CCC(C(=O)O/N=C(\N)c1ccccc1)c1ccccc1 (stereo not given) | 0.0275
78 | Cn1c(=O)cc(SCC(=O)N2CCCC2)c2ccc(Cl)cc21 | -0.0795
79 | COC(=O)c1cccc(N(C(=O)c2cnccn2)C(C(=O)NCc2ccccc2)c2ccco2)c1 (stereo not given) | -0.473
80 | O=C(CNC(=O)c1ccco1)NCC(=O)OCc1cccc(C(=O)Oc2ccccc2)c1 | -1.04
81 | CC1CC(NC(=O)C2(C)CC2(Cl)Cl)CC(C)(C)C1 (stereo not given) | -0.241
82 | Cc1ccccc1NC(=O)C1C2CCCC1C2c1ccccc1 (stereo not given) | 0.216
83 | CC(C)Oc1ccc(C2CC(=O)N(c3ccccc3)C2=O)cc1 (stereo not given) | 2.33
84 | O=C(Nc1ccccc1)Nc1ccc(F)c([N+](=O)[O-])c1 | 0.304
85 | O=C(CNS(=O)(=O)/C=C/c1ccccc1)OCC(=O)N1CCC(Cc2ccccc2)CC1 | -0.27
86 | O=C(NC1CCSC1=O)c1ccc(Oc2cccc(C(F)(F)F)c2)nc1 (stereo not given) | 0.00898
87 | O=C(OCc1nc2ccccc2s1)C1CCN(S(=O)(=O)c2cccs2)CC1 | 0.023
88 | CN1CCN(C(=O)/C(=C\c2cccs2)NC(=O)c2ccco2)CC1 | -0.139

Row | Compound | z-score
89 | O=C(NCC(c1ccco1)N1CCCC1)c1ccc(Cl)cc1 (stereo not given) | -0.378
90 | COc1ccccc1NC(=O)c1nnn(CC(=O)Nc2ccccc2)c1N | 0.694
91 | CC(C)c1ccc(S(=O)(=O)/N=C2/C=C(Sc3ncn[nH]3)C(=O)c3ccccc32)cc1 | -0.192
92 | COCCCNC(=O)C1CCN(C(=O)Nc2ccc(Cl)cc2)CC1 | -0.486
93 | CCOC(=O)c1c(NCC2CCCO2)c2ccccc2[nH]c1=O (stereo not given) | -0.0574
94 | O=C(c1ccco1)N1CCN(C(=O)C2CCCO2)CC1 (stereo not given) | -0.365
95 | CSCCC(NS(=O)(=O)c1ccc(Cl)cc1)C(=O)OCc1c(Cl)cccc1Cl (stereo not given) | -0.0757
96 | Nc1c(C(=O)c2ccc(Br)s2)oc2ccccc12 | 1.19
97 | Cn1c(SCC(=O)N2CCc3ccccc3C2)nnc1-c1cccs1 | 0.491
98 | S=C(Nc1cccc(Cl)c1)N1CCN(Cc2ccccc2)CC1 | -0.391
99 | CCOC(=O)c1cc(-c2ccc(C)cc2)n(CCC(=O)NCCN(C)C)c1C | 0.178
100 | Cc1ccc(Cn2ncc3c(N4CCN(c5ccc(C)cc5)CC4)ncnc32)cc1 | -0.0986
101 | CC(=O)COc1cc(C)cc2oc(=O)c(C)c(C)c12 | -0.136
102 | O=C(COc1ccccc1)NCCc1cn2ccsc2n1 | 0.183
103 | COc1cc(NC(=S)NC(C)=O)ccc1NC(=O)C(C)C | -0.0237
104 | CC1(C)CC(=O)C2=C(C1)OC(N)=C(C#N)C2C1CC=CCC1 (stereo not given) | -0.081
105 | O=C(CCSc1ccc(Cl)cc1)NC12CC3CC(CC(C3)C1)C2 | -0.404
106 | c1ccc(Cn2nnc3c(N4CCCC4)ncnc32)cc1 | -0.0405
107 | CCOC(=O)COc1ccc(S(=O)(=O)NCc2ccncc2)cc1 | 1.19
108 | Cc1cccnc1Nc1nc(-c2ccc(O)c(O)c2)cs1 | -0.0449
109 | CCOC(=O)N1CCN(C(=O)CN(c2cccc(OC)c2)S(C)(=O)=O)CC1 | 0.147
110 | Cc1ccc(CN2C(=O)CCC2C(=O)N2CCN(c3ccc(F)cc3)CC2)cc1 (stereo not given) | 0.414
